Reference: PMC9911399, “Two distinct binding modes provide the RNA-binding protein RbFox with extraordinary sequence specificity”
Substitutions are numbered along the chain they refer to; changes in the protein carry UniProt numbers. This is one part of the list.

B1: AAUGGUU (DNA:RNA)
RNA: GGGAGACCGGAAUUCAGAUUGUCCAAUGGUUUUAAAUCCCGUCGUAGCCACCA
DNA 1: CAATCTGAATTCCGGTCTCCC
DNA 2: TGGTGGCTACGACGGGATT
B2: CUAAGAU (DNA:RNA)
RNA: B1 RNA with A25C, A26U, U27A, G28A, U30A
DNA 1: CAATCTGAATTCCGGTCTCCC
DNA 2: TGGTGGCTACGACGGGATT
B3: CACAUCG (DNA:RNA)
RNA: B1 RNA with A25C, U27C, G28A, G29U, U30C, U31G
DNA 1: CAATCTGAATTCCGGTCTCCC
DNA 2: TGGTGGCTACGACGGGATT
B4: GUUAAGA (DNA:RNA)
RNA: B1 RNA with A25G, A26U, G28A, G29A, U30G, U31A
DNA 1: CAATCTGAATTCCGGTCTCCC
DNA 2: TGGTGGCTACGACGGGATT
B5: UACUCGC (DNA:RNA)
RNA: B1 RNA with A25U, U27C, G28U, G29C, U30G, U31C
DNA 1: CAATCTGAATTCCGGTCTCCC
DNA 2: TGGTGGCTACGACGGGATT
B6: GGGCACC (DNA:RNA)
RNA: GGGAGACCGGAAUUCAGAUUGUCCGGGCACCUUAAAUCCCGUCGUAGCCACCA
DNA 1: CAATCTGAATTCCGGTCTCCC
DNA 2: TGGTGGCTACGACGGGATT
B7: CGGACUU (DNA:RNA)
RNA: B1 RNA with A25C, A26G, U27G, G28A, G29C
DNA 1: CAATCTGAATTCCGGTCTCCC
DNA 2: TGGTGGCTACGACGGGATT
B8: UCCCUGA (DNA:RNA)
RNA: B6 RNA with G25U, G26C, G27C, A29U, C30G, C31A
DNA 1: CAATCTGAATTCCGGTCTCCC
DNA 2: TGGTGGCTACGACGGGATT
B9: CCUAUGA (DNA:RNA)
RNA: B1 RNA with A25C, A26C, G28A, G29U, U30G, U31A
DNA 1: CAATCTGAATTCCGGTCTCCC
DNA 2: TGGTGGCTACGACGGGATT
B10: AGGCGUU (DNA:RNA)
RNA: B1 RNA with A26G, U27G, G28C
DNA 1: CAATCTGAATTCCGGTCTCCC
DNA 2: TGGTGGCTACGACGGGATT
B11: GGGGCCU (DNA:RNA)
RNA: B6 RNA with C28G, A29C, C31U
DNA 1: CAATCTGAATTCCGGTCTCCC
DNA 2: TGGTGGCTACGACGGGATT
B12: CAGUUUA (DNA:RNA)
RNA: B1 RNA with A25C, U27G, G28U, G29U, U31A
DNA 1: CAATCTGAATTCCGGTCTCCC
DNA 2: TGGTGGCTACGACGGGATT
B13: UGAUGGC (DNA:RNA)
RNA: B6 RNA with G25U, G27A, C28U, A29G, C30G
DNA 1: CAATCTGAATTCCGGTCTCCC
DNA 2: TGGTGGCTACGACGGGATT
B14: UGACUAU (DNA:RNA)
RNA: B6 RNA with G25U, G27A, A29U, C30A, C31U
DNA 1: CAATCTGAATTCCGGTCTCCC
DNA 2: TGGTGGCTACGACGGGATT
B15: AAUCCGC (DNA:RNA)
RNA: B1 RNA with G28C, G29C, U30G, U31C
DNA 1: CAATCTGAATTCCGGTCTCCC
DNA 2: TGGTGGCTACGACGGGATT
B16: UCUCUAG (DNA:RNA)
RNA: B1 RNA with A25U, A26C, G28C, G29U, U30A, U31G
DNA 1: CAATCTGAATTCCGGTCTCCC
DNA 2: TGGTGGCTACGACGGGATT
B17: CAUUGCC (DNA:RNA)
RNA: B1 RNA with A25C, G28U, U30C, U31C
DNA 1: CAATCTGAATTCCGGTCTCCC
DNA 2: TGGTGGCTACGACGGGATT
B18: UUUAUUU (DNA:RNA)
RNA: B1 RNA with A25U, A26U, G28A, G29U
DNA 1: CAATCTGAATTCCGGTCTCCC
DNA 2: TGGTGGCTACGACGGGATT
B19: GACUGUG (DNA:RNA)
RNA: B1 RNA with A25G, U27C, G28U, U31G
DNA 1: CAATCTGAATTCCGGTCTCCC
DNA 2: TGGTGGCTACGACGGGATT
B20: GAGUCAA (DNA:RNA)
RNA: B6 RNA with G26A, C28U, A29C, C30A, C31A
DNA 1: CAATCTGAATTCCGGTCTCCC
DNA 2: TGGTGGCTACGACGGGATT

The binders below were run against T1, RBFOX1 RRM (Homo sapiens, UniProt Q9NWB1 109-208) (assay: EMSA; HiTS-Eq, 1 nM pool, 10 min; buffer printed only for the single-RNA assays: 10 mM Tris pH 7.5, 150 mM NaCl, 3.4 mM EDTA, 0.001% NP-40, 30 C). Settings: tags: His6 N-terminal (pET28a); label: 5' 32P.
T1 sequence: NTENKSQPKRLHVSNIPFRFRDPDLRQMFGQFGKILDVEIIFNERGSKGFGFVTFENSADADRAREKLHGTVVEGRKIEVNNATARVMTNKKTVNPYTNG
How it was run: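 These values rest on relative association constants, computed from read-count changes of each RNA species versus the control reaction and normalised to the cognate motif. Reads came from free RNA recovered by 8% native PAGE after purified RbFox RRM (wild type or mutant) at increasing concentrations was equilibrated for 10 min in 50 µL with 1 nM of a 5′-radiolabelled pool with 7 randomized nucleotides and DNA-annealed flanks.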

| Binder | binding signal |
| --- | --- |
| B1 | 0.011 KA relative to UGCAUGU |
| B2 | 0.00704 KA relative to UGCAUGU |
| B3 | 0.00432 KA relative to UGCAUGU |
| B4 | 0.012 KA relative to UGCAUGU |
| B5 | 0.00662 KA relative to UGCAUGU |
| B6 | 0.0223 KA relative to UGCAUGU |
| B7 | 0.0191 KA relative to UGCAUGU |
| B8 | 0.00782 KA relative to UGCAUGU |
| B9 | 0.00562 KA relative to UGCAUGU |
| B10 | 0.0133 KA relative to UGCAUGU |
| B11 | 0.0256 KA relative to UGCAUGU |
| B12 | 0.0027 KA relative to UGCAUGU |
| B13 | 0.0129 KA relative to UGCAUGU |
| B14 | 0.0127 KA relative to UGCAUGU |
| B15 | 0.00133 KA relative to UGCAUGU |
| B16 | 0.00798 KA relative to UGCAUGU |
| B17 | 0.00747 KA relative to UGCAUGU |
| B18 | 0.0073 KA relative to UGCAUGU |
| B19 | 0.0275 KA relative to UGCAUGU |
| B20 | 0.007 KA relative to UGCAUGU |
